Literature values in patent publication US20240247069A1, “FGFR3 BINDING MOLECULES AND METHODS OF USE THEREOF” (Regeneron Pharmaceuticals, Inc., priority 2023, published 2024).

B1: PRQ-021: anti-FGFR3 IIIc antibody of WO 2006/048877 A2; VH SEQ ID NO:32, VL SEQ ID NO:33 (antibody, V domains shown)
VH: QVQLVQSGAEVKKPGSSVKVSCKASGGTFSSYAISWVRQAPGQGLEWMGGIIPIFGTANYAQKFQGRVTITADESTSTAYMELSSLRSEDTAVYYCARDNWFKPFSDVWGQGTLVTVSS
VL: DIVMTQSPDSLAVSLGERATINCRSSQSVLYSSNNKNYLAWYQQKPGQPPKLLIYWASTRESGVPDRFSGSGSGTDFTLTISSLQAEDVAVYYCQQYDSIPYTFGQGTKVEIKRT
B2: PRQ-024: anti-FGFR3 IIIc antibody of WO 2006/048877 A2; VH SEQ ID NO:34, VL SEQ ID NO:48 (antibody, V domains shown)
VH: B1 VH with D99V, W101H, F102W, K103T, P104Y, F105T, S106F, V108Y
VL: DIVLTQSPATLSLSPGERATLSCRASQSVSSSYLAWYQQKPGQAPRLLIYGASSRATGVPARFSGSGSGTDFTLTISSLEPEDFATYYCQQMSNYPDTFGQGTKVEIKRT
B3: MS-Pro-21: anti-FGFR3 Ig-like domain 3 antibody of WO 2002/102972 A2; VH SEQ ID NO:32, VL SEQ ID NO:33 (antibody, V domains shown)
VH: B1 VH
VL: B1 VL
B4: MS-Pro-24: anti-FGFR3 Ig-like domain 3 antibody of WO 2002/102972 A2; VH SEQ ID NO:34, VL SEQ ID NO:35 (antibody, V domains shown)
VH: B1 VH with D99V, W101H, F102W, K103T, P104Y, F105T, S106F, V108Y
VL: DIVLTQSPATLSLSPGERATLSCRASQSVSSSYLAWYQQKPGQAPRLLIYGASSRATGVPARFSGSGSGTDFTLTISSLEPEDFATYYCQQSNYPDTFGQGTKVEIKRT

System: FGFR3
Details: Table T-3, exemplary FGFR3 D3 binding sequences from cited PCT publications; cited from earlier work

| Molecule | Activity |
| --- | --- |
| B1 | Antagonistic |
| B2 | Antagonistic |
| B3 | Antagonistic |
| B4 | Antagonistic |

Same assay, conditions: literature antibodies, sequences from cited PCT publications; cited from earlier work

| Molecule | Activity |
| --- | --- |
| B1 | Antagonistic |
| B2 | Antagonistic |
| B3 | Antagonistic |
| B4 | Antagonistic |

Positions count from the first letter of the chain named.
